Data reported in the supplement of paper PMC12217912.
The other results are listed elsewhere or left out. The full chains were built here from the parent and the listed change. Inactive controls read about 0.05.

B1: TEV protease; numbered along this chain (parent)
chain: MGESLFKGPRDYNPISSSICHLTNESDGHTTSLYGIGFGPFIITNKHLFRRNNGTLVVQSLHGVFKVKDTTTLQQHLVDGRDMIIIRMPKDFPPFPQKLKFREPQREERICLVTTNFQTKSMSSMVSDTSCTFPSGDGIFWKHWIQTKDGQCGSPLVSTRDGFIVGIHSASNFTNTNNYFTSVPKNFMELLTNQEAQQWVSGWRLNADSVLWGGHKVFMVKPEEPFQPVKEATQL

Variants of: B1
Experiment: raw area under fraction-flipped curve 0-4 h after induction (AUC4h, not background-subtracted), DNA-recorder readout of cleavage of the substrate (dimensionless); higher = more cleavage of the substrate by the protease variant
Settings: temperature: 34 °C; time window: 0-4 h after rhamnose induction
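Also: Bxb1 expression induced with 0.2% (w/v) L-rhamnose at OD600 near 0.5, cultures sampled hourly, flipped fraction per protease–substrate barcode pair counted by paired-end Illumina sequencing.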

Variant	area with substrate EELYFQS	area with substrate EHLYFQS	area with substrate EKLYFQS	area with substrate ESLYFQS	area with substrate EVLYFQS	area with substrate EYLYFQS	area with substrate EDLYFQS	area with substrate EFLYFQS	area with substrate EGLYFQS	area with substrate EILYFQS	area with substrate ELLYFQS	area with substrate EPLYFQS	area with substrate ERLYFQS	area with substrate ETLYFQS	area with substrate EMLYFQS	area with substrate EWLYFQS	area with substrate EQLYFQS
MGESLFKQPRDYNPISSSICHLTNESDGHTTSLYGIGFGPFIITNKHLFRRNNGTLVVQSLHGVFKVKDTTTLQQHLVDGRDMIIIRMPKDFPPFPQKLKFREPQREERICLVTTNFQTKSMSSMVSDTSCTFPSGDGIFWKHWIQTKDGQCGSPLVSTRDGFIVGIHSASNFTNTNNYFTSVPKNFMELLTNQEAQQWVSGWRLNADSVLWGGHKVFMVKPEEPFQPVKEATQL [G8Q]	0.116	0.104	0.152	0.103	0.0998	0.0855	–	–	–	–	–	–	–	–	–	–	–
MGESLFKGPRDYNPISSSICHLTNESDGHTTSLYGIGFGPFIITNKHLFRRNNGTLVVQSLHGVFKVKDTTTLQQHLVDGRDMIIIRMPKDFPPFPQKLKFREPQREERICLVTTNFQTKSMSSMVSDTSCTFPSGDGIFWKHWIQTKDGQCGSPLVSTRDGFIVGIHSASNFTNTNNYFTSVPKNFMELLTNQEAQQWVSGWRLNNDSVLWGGHKVFMVKPEEPFQPVKEATQL [A207N]	0.134	–	–	0.0892	0.0963	0.0942	0.167	0.163	0.0883	0.0854	0.0951	0.11	0.083	0.0847	–	–	–
MGESLFKGPRDYNPISSSICHLTNESDGHTTSLYGIGFGPFIITNKHLFRRNNGTLVVQSLHGVFKVKDTTTLQQHLVDGRDMIIIRMPKDFPPFPQKLKFREPQREERICLVTTNFQTKSMSSMVSDTSCTFPSGDGIFWKHWIQTKDGQCGSPLVSTRDGFIVGIHSASNFTNTNNYFTSVPKNFMELLTNQEAQQWVSGWRLNPDSVLWGGHKVFMVKPEEPFQPVKEATQL [A207P]	–	0.0966	–	0.0871	0.0722	0.0854	0.104	0.0692	–	–	0.0801	0.11	0.0538	–	0.138	0.0786	–
MGESLFKGPRDYNPISSSICHLTNESDGHTTSLYGIGFGPFIITNKHLFRRNNGTLVVQSLHGVFKVKDTTTLQQHLVDGRDMIIIRMPKDFPPFPQKLKFREPQREERICLVTTNFQTKSMSSMVSDTSCTFPSGDGIFWKHWIQTKDGQCGSPLVSTRDGFIVGIHSASNFTNTNNYFTSVPKNFMELLTNQEAQQWVSGWRLNADSVLWLGHKVFMVKPEEPFQPVKEATQL [G213L]	–	–	0.0631	0.0642	–	–	0.0429	0.0536	–	0.0472	0.0569	0.036	0.0412	–	0.121	0.0498	–
MGESLFKGPRDYNPISSSICHLTNESDGHTTSLYGIGFGPFIITNKHLFRRNNGTLVVQSLHGVFKVKDTTTLQQHLVDGRDMIIIRMPKDFPPFPQKLKFREPQREERICLVTTNFQTKSMSSMVSDTSCTFPSGDGIFWKHWIQTKDGQCGSPLVSTRDGFIVGIHSASNFTNTNNYFTSVPKNFMELLTNQEAQQWVSGWRLNADSVLWGGHKVFMVKEEEPFQPVKEATQL [P222E]	0.0848	–	0.0904	0.111	0.116	0.0802	0.114	0.0712	–	–	–	0.104	0.119	0.116	0.0973	–	–
MGESLFKGPRDYNPISSSICHLTNESDGHTTSLYGIGFGPFIITNKHLFRRNNGTLVVQSLHGVFKVKDTTTLQQHLVDGRDMIIIRMPKDFPPFPQKLKFREPQREERICLVTTNFQTKSMSSMVSDTSDTFPSGDGIFWKHWIQTKDGQCGSPLVSTRDGFIVGIHSASNFTNTNNYFTSVPKNFMELLTNQEAQQWVSGWRLNADSVLWGGHKVFMVKPEEPFQPVKEATQL [C131D]	0.0919	0.0833	0.0929	–	0.0947	–	–	0.0853	–	–	–	–	–	–	–	0.0813	0.11
MGESLFKGPRDYNPISSSICHLTNESDGHTTSLYGIGFGPFIITNKHLFRRNNGTLVVQSLHGVFKVKDTTTLQQHLVDGRDMIIIRMPKDFPPFPQKLKFREPQREERICLVTTNFQTKSMSSMVSDTSCTFPSGDGIFWKHWIQTKDGQCGSPLVSTRDGFIVGIHSASNFTNTNNYFTSVPKNFMELLTNQEAQQWVSGWRLNADSVLWGGHKVFMVKPEEPFQPVKAATQL [E231A]	–	–	0.138	0.0738	–	–	0.131	–	0.0836	–	–	0.145	–	0.119	0.104	–	0.11
MGESLFKGPRDYNPISSSICHLTNESDGHTTSLYGIGFGPFIITNKHLFRKNNGTLVVQSLHGVFKVKDTTTLQQHLVDGRDMIIIRMPKDFPPFPQKLKFREPQREERICLVTTNFQTKSMSSMVSDTSCTFPSGDGIFWKHWIQTKDGQCGSPLVSTRDGFIVGIHSASNFTNTNNYFTSVPKNFMELLTNQEAQQWVSGWRLNADSVLWGGHKVFMVKPEEPFQPVKEATQL [R51K]	0.105	–	0.117	0.0859	–	0.108	–	–	–	0.0765	–	–	–	0.15	0.108	–	0.124
MGESLFKGPRDYNPISSSICHLTNESDGHTTSLYGIGFGPFIITNKHLFRRNNGTLVVQSLHGVFKVKDTTTLQQHLVDGRDMIIIRMPKDEPPFPQKLKFREPQREERICLVTTNFQTKSMSSMVSDTSCTFPSGDGIFWKHWIQTKDGQCGSPLVSTRDGFIVGIHSASNFTNTNNYFTSVPKNFMELLTNQEAQQWVSGWRLNADSVLWGGHKVFMVKPEEPFQPVKEATQL [F92E]	0.0946	0.0634	0.0844	0.0853	–	–	–	0.088	0.0912	0.0716	0.0854	0.0922	0.0785	–	0.103	–	–
MGESLFKGPRDYNPISSSICHLTNESDGKTTSLYGIGFGPFIITNKHLFRRNNGTLVVQSLHGVFKVKDTTTLQQHLVDGRDMIIIRMPKDFPPFPQKLKFREPQREERICLVTTNFQTKSMSSMVSDTSCTFPSGDGIFWKHWIQTKDGQCGSPLVSTRDGFIVGIHSASNFTNTNNYFTSVPKNFMELLTNQEAQQWVSGWRLNADSVLWGGHKVFMVKPEEPFQPVKEATQL [H29K]	0.136	0.0779	–	0.0952	–	–	–	–	–	–	0.0882	0.0845	–	–	0.115	–	–
MGESLFKGPRDYNPISSSICHLTNESDGHTTSLYGIGFGPFIITNKHLFRRNNGTLVVQSLHGVFKVKDTTTLQQHLVDGRDMIIIRMPKDFPPFPQKLKFREPEREERICLVTTNFQTKSMSSMVSDTSCTFPSGDGIFWKHWIQTKDGQCGSPLVSTRDGFIVGIHSASNFTNTNNYFTSVPKNFMELLTNQEAQQWVSGWRLNADSVLWGGHKVFMVKPEEPFQPVKEATQL [Q105E]	0.119	0.0792	0.117	0.0896	–	–	–	–	0.0893	0.103	–	–	–	0.109	–	–	0.151
